In the RNAGym collection of RNA variant scans (doi:10.1093/nar/gkz1192):
The source gives no read counts; variants with many changes may rest on few reads.

B1: CPEB3 Ribozyme (parent)
chain: UAACAGGGGGCCACAGCAGAAGCGUUCACGUCGCAGCCCCUGUCAGAUUCUGGUGAAUCUGCGAAUUCUGCUGUAUAUCUC

Variants of: B1
Assay: self-cleavage, relative activity (ratio to wild type); higher = more cleavage; in vitro, sequencing
In short: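 After error-prone PCR and barcoding, CPEB3 ribozyme mutant libraries were transcribed with T7 RNA polymerase at 37°C for 5 hours, then given 15 min with DNase I before an EDTA stop, and they cleaved during both steps. Reverse transcription with template switching preceded Illumina sequencing. Relative activity divides a variant's cleaved/total read fraction by the unmutated ribozyme's. At least 5 reads were required per variant, and three batches were averaged.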

Row | Variant | self-cleavage
1 | A5G A15G A20G C32A C34G | 0.85
2 | A5G A13U A45G U72C | 0.65
3 | A5G A21G U48C A57G A75G | 0.48
4 | A5G A18U U26A A28G U43G U69C A77U | 0
5 | A5G A28C U72C | 0.74
6 | A5G A18U U41C A56G U67C | 0.23
7 | A5G A15G A28U A45G U51A | 0.52
8 | A5G A15G A18G G30A U72C | 0.29
9 | A5G A13U A15C U26A U49A U74C | 0.15
10 | A5G A15G G30A C50A U51C | 0.3
11 | A5G A21G A28U U51C A64G | 0.7
12 | A5G A21G U26A C40U U48C | 0.07
13 | A5G A13U U31A U48C U78G | 0.14
14 | A5G A13G U26G A45U A57C | 0.05
15 | A5G A21G G63U | 0.32
16 | A5G A20U U41A U67C | 0.09
17 | A5G A13U U41A U48A U49C | 0.25
18 | A5G A13U U31A A56G U67C | 0.11
19 | A5G A18G C23U C39U G42U | 0.07
20 | A5G A18U A35G A47G A56U U67C | 0.16
21 | A5G A15U U74C | 0.75
22 | A5G A20U U31A U41C U49A G55A G73A | 0
23 | A5G A28G U31A A64G | 0.04
24 | A5G A13G U51A A56U U76A | 0.07

Row | Variant | self-cleavage
25 | A5G A18U G36C U69A | 1.08
26 | A5G A28G U43A A57G C62A | 0.07
27 | A5G A20G U31A A35G A47G A56G U76C | 0.25
28 | A5G A18G C29U A35G C81A | 0.44
29 | A5G A18U A47G A57G A65U U80C | 0.11
30 | A5G A15G G30A U51C U60A | 0.2
31 | A5G A15U A20G A35G | 0.92
32 | A5G A15G A21G U51A U76G | 0.56
33 | A5G A20G G42A U51C U60C G70A U72A | 0.15
34 | A5G A20G A28G G46U | 0.12
35 | A5G A20U C29U C38U | 0.27
36 | A5G A15G A18U A20G U60C A65G U67A | 0.09
37 | A5G A15U C29G U31C | 0.07
38 | A5G A13U A28G | 0.51
39 | A5G A20G A28G U43A U49A U72C | 0.04
40 | A5G A28C U51A | 0.26
41 | A5G A13U A15G A21G U74A | 0.53
42 | A5G A13U A21G C68G | 0.15
43 | A5G A13U U78C | 0.88
44 | A5G A20U U80G | 0.23
45 | A5G A28G U43C C44A U67C | 0.1
46 | A5G A28G U31C U41C | 0.34
47 | A5G A18U G33A A45U U60C | 0.07
48 | A5G A18G A45G U72C G73A | 0.18

Row | Variant | self-cleavage
49 | A5G A21G C27U U41A U67C U72A | 0.07
50 | A5G A20U A21G U58C U69C | 0.68
51 | A5G A21G U26A A28U C40A G63A A64C | 0.13
52 | A5G A20G G24A C27U | 0.48
53 | A5G A15G C23A U69C U78A | 0.13
54 | A5G A20G U48A A57G C62A | 0.3
55 | A5G A21G C23U C50A U60A G73A | 0.08
56 | A5G A20U U51C A56G U72A | 0.09
57 | A5G A15G A64U U69C | 0.27
58 | A5G A15G C27U G42A A57G U69A | 0.02
59 | A5G A15C U51A A56U U60C | 0.12
60 | A5G A20U A35U U41A A45G U72A | 0.07
61 | A5G A13U A15U A28U U54C | 0.14
62 | A5G A20G U25C C40A A64G U80C | 0.09
63 | A5G A15U A18U U26C G30A A75U | 0.08
64 | A5G A15G A18U C27G U31A | 0.07
65 | A5G A13U A57G U66C | 0.16
66 | A5G A15G A28G G33A U51A U72C | 0.09
67 | A5G A13U A20G U26C A28G U58A U78C | 0.03
68 | A5G A13U A18U A45G U54C U72C | 0.13
69 | A5G A18U U67C U72A | 0.06
70 | A5G A13U A20G U41C U60A U69C A77G | 0.14
71 | A5G A18G G46A A57U | 0.14
72 | A5G A20G A45U U80C | 0.22

Row | Variant | self-cleavage
73 | A5G A18U U31C A35G G36A U54C U80C | 0.41
74 | A5G A13G U43C U49C G70C | 0
75 | A5G A18C C23G A47U | 0.05
76 | A5G A21G U41C A45G U72A | 0.07
77 | A5G A20G U58C U67A U72C | 0.08
78 | A5G A13G U31A A47U | 0.42
79 | A5G A21G A56G A65G | 0.1
80 | A5G A21G C23U U54C U72C | 0.25
81 | A5G A13U A20G U60C | 0.08
82 | A5G A13G U31A C38A U49G A64C | 0.14
83 | A5G A28G A35U U41A A75U | 0.11
84 | A5G A21G A45G A47U U67C U72C U80C | 0.06
85 | A5G A21G C40U U41A | 0.4
86 | A5G A21G A57G | 0.53
87 | A5G A18G U41A U43C U78C | 0.31
88 | A5G A15U C37A | 0.1
89 | A5G A15U C40A U41A U69C U72C | 0.22
90 | A5G A15C U54C U60A | 0.05
91 | A5G A20U U31A G55A G73A | 0.58
92 | A5G A13U U41C U51C U80A | 0.54
93 | A5G A13U A65C U72A | 0.16
94 | A5G A15U C29A U58C U78C | 0.34
95 | A5G A21G U31C U51A C81U | 0.11
96 | A5G A20G U25C A57G A75G | 0.2

Row | Variant | self-cleavage
97 | A5G A18G A28U | 0.24
98 | A5G A21G C40U U78C | 0.06
99 | A5G A18U A35G U78C | 0.68
100 | A5G A18U U67C | 0.24
101 | A5G A15U A20G U43C | 0.38
102 | A5G A13G U31C A64U | 0.1
103 | A5G A15U A28U U43C | 0.73
104 | A5G A18G U41A | 0.41
105 | A5G A18G U60C A75G | 0.25
106 | A5G A13U A28G A35G U41A U54C U58C | 0.17
107 | A5G A13G U69C U80C | 0.2
108 | A5G A21G C32U U51C U54C A77G | 0
109 | A5G A15U U43A U54C | 0.55
110 | A5G A20U U43A U54C A57G U58C U60C | 0.31
111 | A5G A13U A47G | 0.91
112 | A5G A21G U26G A64G | 0.33
113 | A5G A18U A28G C32U | 0.31
114 | A5G A18U G42A | 0.31
115 | A5G A18U U26C U41A G46A A64G U76C | 0.04
116 | A5G A20G U25C U41C U67C U74A | 0.04
117 | A5G A21G U31A U49C U78C | 0.07
118 | A5G A21G U26C G53A A56G A57G | 0.06
119 | A5G A21U A35G C62U | 0.37
120 | A5G A13U C37A U54C U66C | 0.09

Row | Variant | self-cleavage
121 | A5G A18G A28U U80C | 0.13
122 | A5G A13U A21G U41A | 0.33
123 | A5G A15G U66A U69C | 0.43
124 | A5G A13U U41A A45U U49A U80C | 0.71
125 | A5G A13U U49G U69C | 0.14
126 | A5G A28G U43A U54C G55U | 0.57
127 | A5G A15U A45G U54A U78C | 0.29
128 | A5G A15G G52U A56G | 0.61
129 | A5G A21G G33U | 0.27
130 | A5G A21G U67A U69C U74C | 0.31
131 | A5G A18G A35U U43C A64G | 0.32
132 | A5G A18U A20U U43C A56G U58C A75C | 0.07
133 | A5G A13U U51A | 0.59
134 | A5G A13U U54C A64U | 0.1
135 | A5G A20G U43A | 0.51
136 | A5G A13U A21G C38G U51A U76A | 0.05
137 | A5G A18U G30A U41A C44A U69C U80C | 0.13
138 | A5G A20U U43C A77G | 0.05
139 | A5G A15U A28G U60C U78C | 0.29
140 | A5G A13U U58C | 0.58
141 | A5G A13U A21U U31C | 0.25
142 | A5G A18G U54A U72A U76C | 0.4
143 | A5G A20G G55A U60A | 0.18
144 | A5G A18G A28G A35G | 0.17

Row | Variant | self-cleavage
145 | A5G A18U U26C G33A U43C | 0.11
146 | A5G A13U U31C U43G A64U U80A | 0.07
147 | A5G A21G U41C U58G C68A | 0.17
148 | A5G A15C U31C U78A | 0.99
149 | A5G A28C U80A | 0.45
150 | A5G A15C G33U G73U | 0.45
151 | A5G A21G A35U C40U A56U U74A A75U | 0.09
152 | A5G A18G A56U | 0.38
153 | A5G A18G A56G | 0.2
154 | A5G A13U U26C | 0.67
155 | A5G A18G A57G | 0.33
156 | A5G A20G U26A A35G A47G U67C | 1.1
157 | A5G A15U U41C U48C A56G A64U | 0.19
158 | A5G A28G A47G A77G U80A | 0.22
159 | A5G A20G U25C | 0.45
160 | A5G A15G U26A U48C U74A | 0.52
161 | A5G A18G A35G U41A G63U | 0.42
162 | A5G A20G A28U U49A | 0.13
163 | A5G A13U A20U A28G A35G U66C | 0.27
164 | A5G A18C A47G A57G | 0.32
165 | A5G A15U C38U | 0.74
166 | A5G A18U U54C | 0.44
167 | A5G A20C U26C | 0.53
